# According to PubChem BioAssay AID493208 (National Center for Advancing Translational Sciences (NCATS), 2011):
# Hit rate of the full screen: of about 44,000 compounds, about 340 (0.77%) were called active. About 5% were inconclusive and are not listed. Calls come from the whole dose curve; as a rule, active = well fitted inhibition curve with a large enough effect; inconclusive = small, poorly fitted or top-dose-only effect; inactive = flat fitted curve, though single readings scatter. The list shows a part of the results.
# Assay: Acumen qHTS Assay for Inhibitors of the mTORC1 Signaling Pathway in MEF (Tsc2-/-, p53-/-) Cells: Sytravon;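 note: plate controls were DMSO for no effect and rapamycin for full effect; nearly all actives have a fitted effect of over 50% in size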
# Settings: phospho-rpS6 immunofluorescence/PI, 24 h; series mostly up to 38.3 µM; activity change, negative = inhibition: at the top concentration
# Outline: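 Cell-based qHTS: Tsc2-/- p53-/- MEF, 24 h cpd, 37 °C; fix/perm, anti-phospho-S6 Alexa-488 + PI; Acumen 488 nm scan; pS6/PI ratio, % positive cells; rapamycin 7.5 nM = inhibition ref; PI count = viability.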
row,Structure (SMILES),"activity change, negative = inhibition"
1,COc1ccc(S(=O)(=O)c2cn(C)c3cc(N4CCCCCC4)c(F)cc3c2=O)cc1,inactive: -7.13%
2,O=C(Nc1cc(F)ccc1F)C1CCN(C(=O)c2cnn(-c3ccccc3)c2-n2cccc2)CC1,inactive: 2.94%
3,Cc1ccc(NC(=O)CSc2nncn2C)c(C)c1,inactive: 0.74%
4,COc1ccc(Cl)c2sc(NC(=O)c3ccc(S(=O)(=O)N4CCCC4)cc3)nc12,inactive: 6.65%
5,COc1ccccc1NC(=O)CSCc1cc(=O)c2cccc(Cl)c2[nH]1,inactive: 0.278%
6,COc1ccc(OC)c(C2CC(=O)Nc3c2c(=O)n(C)c2ncnn32)c1 (stereo not given),inactive: 1.09%
7,O=C(CSC1=Nc2ccccc2C2=NC(Cc3ccccc3)C(=O)N12)Nc1cccc(Cl)c1 (stereo not given),inactive: 0%
8,COc1ccccc1Cn1c(C2CC(=O)N(c3ccccc3OC)C2)nc2ccccc21 (stereo not given),inactive: 0.958%
9,CCc1ccc2occ(CC(=O)Nc3c(C(=O)c4ccccc4)oc4ccccc34)c2c1,inactive: 1.05%
10,CCOC(=O)c1c(-c2ccccc2)oc2ccc(NS(=O)(=O)c3ccc(C)cc3)cc12,inactive: -13.1%
11,Cc1ccc(CNC(=O)c2cc3sc(Cl)cc3n2C)cc1,inactive: -1.35%
12,CCOC(=O)c1c(C)oc2ccc(N(C(=O)c3ccncc3)S(=O)(=O)c3ccc(F)cc3C)cc12,inactive: -4.71%
13,Cc1ccc2nc(-c3ccc(Cl)c(NC(=O)COc4ccc([N+](=O)[O-])cc4)c3)oc2c1,inactive: -1.5%
14,Cc1cccc(CS(=O)(=O)Cc2ccc(C(=O)NCc3ccc(F)cc3)o2)c1,inactive: 5.91%
15,COc1cccc(NC(=O)c2cnc(SCC(=O)N3CCCc4ccccc43)n(C)c2=O)c1,inactive: -11%
16,CCN(C(=O)c1cc2c(=O)oc3ccccc3c2s1)c1ccccc1F,inactive: -8.79%
17,Cc1noc(-c2ccc(-c3noc(-c4ccc(Cl)cc4)n3)cc2)n1,inactive: 0.363%
18,Cc1ccc(C)c(CN2CCCN(Cc3ccccc3C)S2(=O)=O)c1,inactive: 0.681%
19,Cc1cc(C)cc(NC(=O)CN2C(=O)c3ccccc3Sc3ccc(C(=O)N4CCCC4)cc32)c1,inactive: -9.71%
20,O=C(CN1C(=O)CCc2cc(Br)ccc21)Nc1ccc(OC(F)(F)F)cc1,inactive: -10.3%
21,CCOC(=O)c1ccc(Nc2c(-c3ccc(N(C)C)cc3)nc3nc[nH]n23)cc1,inactive: -11%
22,COc1cccc(CNC(=O)c2nn(C)c3c2CSc2ccccc2-3)c1,inactive: 1.55%
23,COc1ccc(NC(=O)c2cnc3cc(C)ccn3c2=O)c(OC)c1,inactive: -8.98%
24,COc1ccc(Cn2c(=O)n(-c3ccc(C)cc3)c(=O)c3c2c2cc(C)ccc2n3C)cc1,inactive: -4.39%

row,Structure (SMILES),"activity change, negative = inhibition"
1,COc1ccc(C)cc1NC(=O)Cn1nc(N2CCN(c3ccccc3OC)CC2)ccc1=O,inactive: -11.3%
2,COc1ccccc1Cc1nc2ccccc2nc1SCC(=O)NCc1ccc(C)cc1,inactive: -4.4%
3,COc1ccccc1CNC(=O)C(=O)NCC(c1cccnc1)N1CCN(c2ccccc2)CC1 (stereo not given),inactive: 12%
4,Cc1noc(C)c1S(=O)(=O)N(CC(=O)NCc1ccccc1)c1ccc(C(C)C)cc1,inactive: -0.157%
5,O=C(COCc1cc(-c2ccco2)on1)Nc1cc(Cl)ccc1O,inactive: -19.3%
6,COc1ccc(-c2nc(SCC(=O)NC3CCCC3)c(-c3ccc(F)cc3)[nH]2)cc1OC,inactive: -18.4%
7,O=C(Nc1ccc2oc(-c3cccnc3)nc2c1)c1ccccc1F,inactive: -10.2%
8,COCCNC(=O)CCn1nc(-c2ccc(Cl)cc2)c2ccccc2c1=O,inactive: -0.306%
9,CC(=O)N1CCCc2cc(S(=O)(=O)Nc3ccc(Cl)cc3F)ccc21,inactive: -0.939%
10,COc1ccc(CC(=O)N2CCc3c([nH]c4ccccc34)C2c2ccc(SC)cc2)cc1 (stereo not given),inactive: -17.1%
11,CC1CCN(C(c2ccc(F)cc2)c2sc3nc(-c4ccco4)nn3c2O)CC1 (stereo not given),inactive: -6.24%
12,COc1ccc(-c2nc3ccccc3s2)cc1NC(=O)c1cc(OC)c(OC)c(OC)c1,inactive: -11.4%
13,COc1ccc(C(=O)N2CCN(C(=O)COc3ccccc3)CC2)cc1OC,inactive: -1.15%
14,O=C(c1ccc2c(c1)N(Cc1ccccc1)C(=O)c1ccccc1S2(=O)=O)N1CCOCC1,inactive: -4.01%
15,COc1ccc(NC(=O)C(NC(=O)/C=C\c2ccc3c(c2)OCO3)c2ccc(C)cc2)cc1 (stereo not given),inactive: -1.26%
16,CCc1ccc(-n2c(N3CCN(c4ccc(F)cc4)CC3)nc3ccccc3c2=O)cc1,inactive: -8.88%
17,COc1ccc(-c2nc3n(n2)C(c2ccc(O)cc2)C(C(=O)Nc2cccnc2)=C(C)N3)cc1OC (stereo not given),inactive: -4.56%
18,O=C(Nc1cccc(Br)c1)c1cc(S(=O)(=O)N2CCCCC2)c[nH]1,inactive: -6.08%
19,Cc1cc(S(=O)(=O)Nc2cc3c(cc2N2CCOCC2)n(C)c(=O)c(=O)n3C)ccc1F,inactive: 0.152%
20,Cc1cccc(C(=O)N2CCc3cc(CNC(=O)c4ccco4)ccc32)c1,inactive: -3.66%
21,CCCNC(=O)c1ccc(Cn2c(SCC(=O)NC(C)C)nc3ccccc3c2=O)cc1,inactive: -0.293%
22,CCOc1ccc(CCNC(=O)NCc2noc3ccc(C)cc23)cc1,inactive: -0.69%
23,COC(=O)CN1C(=O)C(O)(c2c(C)[nH]c3ccccc23)c2ccccc21 (stereo not given),inactive: -21.3%
24,COc1ccccc1CNc1nccn(-c2ccc(F)cc2)c1=O,inactive: 6.02%

row,Structure (SMILES),"activity change, negative = inhibition"
1,CCCn1c2ccccc2c2cnn(CC(=O)NCC3CCN(Cc4ccccc4C)CC3)c(=O)c21,inactive: -2.76%
2,COc1ccc(C(=O)Nc2nc(-c3ccc(Br)cc3)ns2)cc1,inactive: -8.78%
3,Cc1csc2nc(COc3ccc(NC(=O)c4ccccc4F)cc3)cc(=O)n12,inactive: -5.15%
4,COc1ccc(NC(=O)Cn2c(=O)c3cccn3c3ccccc32)cc1,inactive: -18.8%
5,Cn1c(=O)c2c(-c3ccccc3)n3c(c2n(C)c1=O)C(c1ccc([N+](=O)[O-])cc1)Nc1ccccc1-3 (stereo not given),inactive: -8.14%
6,COc1ccc(S(=O)(=O)NCCc2sc(-c3cccnc3)nc2C)cc1,inactive: -5.24%
7,O=C(NC1CC(=O)N(c2ccc(F)cc2)C1)c1ccc(S(=O)(=O)N2CCOCC2)cc1 (stereo not given),inactive: -3.81%
8,Cc1ccc(-n2ncc3c(Nc4ccc5c(c4)OCCO5)ncnc32)cc1Cl,inactive: 0%
9,Cc1ccc(C(=O)c2oc3ccccc3c2NC(=O)c2cc(-c3ccccc3)on2)cc1,inactive: -0.372%
10,CCOCCCN1C(=O)CN(C2CCCCCC2)C(=O)C1c1ccc(OCC)c(OC)c1 (stereo not given),inactive: 5.51%
11,CCCCN(C)S(=O)(=O)c1ccc(C(=O)Nc2sc3c(c2C(=O)OCC)CCN(C(C)C)C3)cc1,inactive: -2.55%
12,CCSc1nc(-c2ccccc2)nc2c1Cc1c(CO)cnc(C)c1O2,inactive: -4.34%
13,CCOC(=O)C1CCN(C(=O)C2CCN(S(=O)(=O)c3c(C)noc3/C=C/c3ccc(C)cc3)CC2)CC1,inactive: -7.22%
14,COc1cc(OC)cc(C(=O)Nc2ccc3c(c2)CCCN3C(=O)c2cccs2)c1,inactive: -3.4%
15,CCOC(=O)c1[nH]c(C)c(CCC(=O)N2CCN(c3ccc(OC)cc3)CC2)c1C,inactive: -0.424%
16,COc1ccc(NC(=O)c2cccc3c(=O)c4c([nH]c23)CCCC4)cc1,inactive: -0.767%
17,O=C(O)CCC(=O)N1CCc2cc(S(=O)(=O)NCc3ccc(F)cc3)ccc21,inactive: -0.183%
18,Cc1ccc(C(C)C)c(OCC(=O)Nc2ccc3c(c2)nc(CCNC(=O)c2ccco2)n3C)c1,inactive: 3.7%
19,Cc1cc(C)cc(NC(=O)CN2C(=O)CSc3ccc(S(=O)(=O)N4CCCC4)cc32)c1,inactive: -2.51%
20,CCOc1ccc(NC(=O)Cn2c(=O)n(Cc3ccccc3)c(=O)c3sc4ccccc4c32)cc1,inactive: 1.14%
21,CCOc1ccc(NC(=O)c2c(NC(=O)c3cccc(C)c3)sc3c2CCC3)cc1,inactive: -7.78%
22,CC1=C(c2ccc(C(C)C)cc2)S(=O)(=O)N=C1N1CCC(C(=O)NCc2ccco2)CC1,inactive: -13.1%
23,Cc1nn(CC(=O)N2CCN(c3ccccc3)CC2)c(=O)c2cc3cc(F)ccc3n12,inactive: -9.5%
24,CCOC(=O)c1c(NC(=O)CSc2cn(CCNC(=O)c3ccccc3OC)c3ccccc23)sc2c1CCCC2,inactive: 2.12%

row,Structure (SMILES),"activity change, negative = inhibition"
1,COc1ccccc1N1CCN(S(=O)(=O)CCNC(=O)COc2ccc(F)cc2)CC1,inactive: -1.02%
2,Cc1ccc(CNC(=O)Cn2c(=O)cc(-c3ccccc3)c3c(C)nn(C)c32)cc1,inactive: -0.726%
3,CCc1ccc(NC(=O)CC2C(=O)N(c3ccc(OC)cc3)C(=O)N2Cc2ccc(OC)cc2)cc1 (stereo not given),inactive: -1.62%
4,Cc1c(C(=O)NCCc2ccccc2)cccc1-n1cnc2cccnc21,inactive: -4.52%
5,COc1ccc(CCNc2ncnc3c2c(-c2ccccc2)cn3-c2cccc(Cl)c2)cc1OC,inactive: -7.36%
6,Cc1cc(=O)n(Cc2ccc(F)cc2Cl)c2c1c(C)nn2-c1ccccc1,inactive: -10.3%
7,COc1ccccc1CNC(=O)C1CCN(S(=O)(=O)c2c(C)noc2/C=C/c2cccs2)CC1,inactive: 0.881%
8,CCn1c(=O)c2sccc2n2c(CCCC(=O)N3CCN(c4cc(C)ccc4C)CC3)nnc12,inactive: -2.59%
9,Cc1ccn2c(=O)c(C(=O)NCCc3ccc(S(N)(=O)=O)cc3)c(O)nc2c1,inactive: -3.82%
10,Cc1ccc(NCc2ccccc2-c2nnc(-c3ccccc3Cl)o2)cc1Cl,inactive: 0.159%
11,COc1ccc(N2C(=O)CSC23C(=O)N(CC(=O)NCc2ccccc2)c2ccccc23)cc1 (stereo not given),inactive: -16%
12,CS(=O)(=O)NCCc1csc2nc(-c3ccccc3)nn12,inactive: 1.15%
13,COc1ccc(NC(=O)NCc2cccn2Cc2ccc(F)cc2)cc1OC,inactive: -1.13%
14,Cc1cc(Nc2ccccc2Cl)n2nc(-c3ccco3)nc2n1,inactive: 8.41%
15,COc1cccc(NC(=O)N(Cc2cn(C)c3ccccc23)C2CCCCC2)c1,inactive: -2.22%
16,Cc1nc2ccn(Cc3cccnc3)c(=O)c2cc1C(=O)NCc1ccc(Cl)cc1,inactive: 2.27%
17,COc1ccccc1CNC(=O)CCCn1nc(C)c2c(C)n(-c3ccc(C)cc3)nc2c1=O,inactive: -0.589%
18,Cc1ccc2onc(CC(=O)Nc3cc(F)ccc3F)c2c1,inactive: 4.05%
19,Cc1ccc(-c2cc(C(F)(F)F)n3nc(C(=O)Nc4sc5c(c4C#N)CCC(C)C5)cc3n2)cc1 (stereo not given),inactive: 3.25%
20,O=C(CSc1nnc2scc(-c3ccc(Cl)cc3)n12)Nc1ccccc1F,inactive: 3.05%
21,COC(=O)c1c(SC)nc2ccccc2c1OCc1ccc(C)cc1C,inactive: -6.8%
22,COc1cc(C(=O)Nc2ccc(Cl)c(-c3nc4ncccc4o3)c2)cc(OC)c1OC,inactive: 3.54%
23,CC(CNC(=O)c1ccc(CSc2nc3ccncc3n2Cc2cccc(F)c2)cc1)c1ccccc1 (stereo not given),inactive: -0.246%
